Experimental data from article PMC12510031.
These are yes or no findings as the source states them, for the method shown. Binding seen in cells or lysates may run through a third protein. Some entries that bind do so weakly or less than the wild type.

Sequences of proteins named here, by UniProt entry; tags and fusion partners are left off. A change or cut given only in a name is not applied to a line headed by its entry.
UniProt Q5S007: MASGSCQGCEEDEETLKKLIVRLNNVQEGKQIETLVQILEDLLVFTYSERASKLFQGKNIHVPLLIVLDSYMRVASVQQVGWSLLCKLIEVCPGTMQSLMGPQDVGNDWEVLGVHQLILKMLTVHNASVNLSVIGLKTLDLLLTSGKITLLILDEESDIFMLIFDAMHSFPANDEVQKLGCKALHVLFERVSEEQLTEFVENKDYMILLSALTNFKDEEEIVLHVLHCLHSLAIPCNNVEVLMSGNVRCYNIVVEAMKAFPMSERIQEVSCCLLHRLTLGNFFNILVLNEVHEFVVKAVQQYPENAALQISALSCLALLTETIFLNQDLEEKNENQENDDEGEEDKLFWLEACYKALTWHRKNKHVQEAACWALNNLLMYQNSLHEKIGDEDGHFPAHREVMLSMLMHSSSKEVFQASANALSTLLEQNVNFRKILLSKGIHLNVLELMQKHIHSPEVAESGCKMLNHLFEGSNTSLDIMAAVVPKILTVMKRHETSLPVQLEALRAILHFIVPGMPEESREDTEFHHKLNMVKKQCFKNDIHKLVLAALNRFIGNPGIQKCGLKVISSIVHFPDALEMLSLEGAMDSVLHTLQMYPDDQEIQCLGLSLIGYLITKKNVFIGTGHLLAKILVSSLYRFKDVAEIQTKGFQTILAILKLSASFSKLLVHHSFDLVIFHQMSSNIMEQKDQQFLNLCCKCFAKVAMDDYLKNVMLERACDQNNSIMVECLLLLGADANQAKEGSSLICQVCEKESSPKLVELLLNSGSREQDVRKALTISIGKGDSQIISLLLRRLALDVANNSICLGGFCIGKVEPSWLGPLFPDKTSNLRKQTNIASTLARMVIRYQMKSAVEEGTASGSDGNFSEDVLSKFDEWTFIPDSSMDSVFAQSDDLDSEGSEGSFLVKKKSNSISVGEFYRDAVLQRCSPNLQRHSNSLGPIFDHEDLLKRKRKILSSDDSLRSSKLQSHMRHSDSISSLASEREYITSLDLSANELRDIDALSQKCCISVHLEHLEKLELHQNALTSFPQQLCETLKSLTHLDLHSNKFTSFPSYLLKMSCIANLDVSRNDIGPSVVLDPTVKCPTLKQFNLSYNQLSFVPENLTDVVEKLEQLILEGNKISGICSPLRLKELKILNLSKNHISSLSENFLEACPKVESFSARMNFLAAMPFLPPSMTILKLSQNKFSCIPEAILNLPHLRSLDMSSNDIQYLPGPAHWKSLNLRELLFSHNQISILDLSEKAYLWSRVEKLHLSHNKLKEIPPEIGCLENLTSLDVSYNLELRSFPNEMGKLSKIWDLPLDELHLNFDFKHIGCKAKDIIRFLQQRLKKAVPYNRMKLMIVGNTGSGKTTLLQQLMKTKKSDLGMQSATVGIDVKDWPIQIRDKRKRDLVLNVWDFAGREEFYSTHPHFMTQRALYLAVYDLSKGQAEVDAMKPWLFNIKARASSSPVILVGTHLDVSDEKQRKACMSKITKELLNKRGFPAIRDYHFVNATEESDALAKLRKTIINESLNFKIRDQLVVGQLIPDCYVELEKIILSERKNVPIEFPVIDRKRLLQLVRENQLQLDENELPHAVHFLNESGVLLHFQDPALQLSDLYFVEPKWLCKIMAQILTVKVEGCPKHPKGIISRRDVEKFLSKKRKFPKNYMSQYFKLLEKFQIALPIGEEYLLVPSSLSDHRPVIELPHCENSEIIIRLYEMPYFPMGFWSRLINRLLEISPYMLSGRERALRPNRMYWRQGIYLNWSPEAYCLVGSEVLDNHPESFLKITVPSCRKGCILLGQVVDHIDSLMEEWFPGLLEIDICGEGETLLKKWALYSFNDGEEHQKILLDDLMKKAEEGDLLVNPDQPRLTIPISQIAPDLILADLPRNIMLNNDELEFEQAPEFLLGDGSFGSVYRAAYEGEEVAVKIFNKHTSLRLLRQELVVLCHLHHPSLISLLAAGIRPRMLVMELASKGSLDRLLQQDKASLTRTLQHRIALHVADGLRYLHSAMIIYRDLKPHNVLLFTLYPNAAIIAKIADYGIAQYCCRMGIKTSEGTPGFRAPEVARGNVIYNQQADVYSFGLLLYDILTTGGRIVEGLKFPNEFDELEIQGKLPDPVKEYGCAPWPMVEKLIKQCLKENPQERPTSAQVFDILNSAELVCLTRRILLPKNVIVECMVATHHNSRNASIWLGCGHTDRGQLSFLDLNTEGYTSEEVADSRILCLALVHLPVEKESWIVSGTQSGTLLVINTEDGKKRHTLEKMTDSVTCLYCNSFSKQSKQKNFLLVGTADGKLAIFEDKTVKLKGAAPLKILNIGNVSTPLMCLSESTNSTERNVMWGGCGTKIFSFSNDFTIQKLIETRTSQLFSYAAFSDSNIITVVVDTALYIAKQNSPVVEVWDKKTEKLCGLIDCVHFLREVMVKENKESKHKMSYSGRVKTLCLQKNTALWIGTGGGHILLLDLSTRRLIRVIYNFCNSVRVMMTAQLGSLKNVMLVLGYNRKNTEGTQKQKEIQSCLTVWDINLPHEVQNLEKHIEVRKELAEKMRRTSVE
UniProt Q93009: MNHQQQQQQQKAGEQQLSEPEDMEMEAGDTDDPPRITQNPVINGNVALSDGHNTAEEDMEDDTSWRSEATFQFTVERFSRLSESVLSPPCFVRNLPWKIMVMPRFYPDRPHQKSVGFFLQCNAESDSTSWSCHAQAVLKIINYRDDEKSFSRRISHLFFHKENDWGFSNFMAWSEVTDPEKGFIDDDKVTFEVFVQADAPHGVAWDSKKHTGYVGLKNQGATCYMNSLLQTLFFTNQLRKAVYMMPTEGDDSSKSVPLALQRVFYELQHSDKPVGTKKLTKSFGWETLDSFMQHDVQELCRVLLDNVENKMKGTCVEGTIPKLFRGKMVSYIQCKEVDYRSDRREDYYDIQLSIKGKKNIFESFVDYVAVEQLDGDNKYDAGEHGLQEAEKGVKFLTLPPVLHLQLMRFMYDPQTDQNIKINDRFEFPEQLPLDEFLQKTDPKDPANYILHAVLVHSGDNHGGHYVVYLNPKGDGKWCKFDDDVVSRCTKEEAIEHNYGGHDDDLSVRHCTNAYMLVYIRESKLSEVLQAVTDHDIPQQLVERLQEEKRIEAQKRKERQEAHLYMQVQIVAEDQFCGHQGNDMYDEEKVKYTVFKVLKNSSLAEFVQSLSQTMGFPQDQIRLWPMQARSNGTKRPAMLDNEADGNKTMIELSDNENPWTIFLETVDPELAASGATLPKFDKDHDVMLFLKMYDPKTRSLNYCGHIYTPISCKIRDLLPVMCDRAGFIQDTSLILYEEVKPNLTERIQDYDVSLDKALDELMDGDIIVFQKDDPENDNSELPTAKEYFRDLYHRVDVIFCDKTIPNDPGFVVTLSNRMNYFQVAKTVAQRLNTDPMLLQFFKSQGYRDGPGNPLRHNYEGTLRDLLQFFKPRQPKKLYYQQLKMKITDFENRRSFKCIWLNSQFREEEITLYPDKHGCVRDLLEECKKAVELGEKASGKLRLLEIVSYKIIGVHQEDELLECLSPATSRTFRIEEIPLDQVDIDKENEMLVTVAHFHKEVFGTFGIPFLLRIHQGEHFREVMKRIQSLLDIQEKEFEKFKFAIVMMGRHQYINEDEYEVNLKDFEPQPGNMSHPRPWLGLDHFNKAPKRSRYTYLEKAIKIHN
UniProt O15379: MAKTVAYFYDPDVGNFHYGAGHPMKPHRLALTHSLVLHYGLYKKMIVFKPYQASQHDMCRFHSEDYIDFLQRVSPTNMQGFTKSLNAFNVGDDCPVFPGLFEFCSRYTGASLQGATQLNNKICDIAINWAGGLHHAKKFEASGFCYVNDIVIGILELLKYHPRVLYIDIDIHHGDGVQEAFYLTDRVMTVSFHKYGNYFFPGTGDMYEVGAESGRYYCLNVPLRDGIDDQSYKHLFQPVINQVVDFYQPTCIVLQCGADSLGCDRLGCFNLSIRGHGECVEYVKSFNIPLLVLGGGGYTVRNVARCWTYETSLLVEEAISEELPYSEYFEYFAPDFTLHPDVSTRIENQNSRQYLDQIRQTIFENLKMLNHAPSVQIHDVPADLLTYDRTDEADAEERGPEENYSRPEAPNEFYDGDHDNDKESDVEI

Key:
[1] = biological target: Myc- and 6xHis-tagged WT LRRK2 (leucine-rich repeat kinase 2) (UniProt Q5S007); test: co-IP; HEK293 lysates expressing WT LRRK2 and full-length USP7 or the USP7 deletion mutants D1-D4 (Fig. S1B); antibody of the IP not given
[2] = biological target: Myc- and 6xHis-tagged WT LRRK2 (leucine-rich repeat kinase 2) (UniProt Q5S007); test: co-IP; THP-1 cells transfected 24 h with Myc-LRRK2 alone or with Flag-USP7; IP with anti-Myc, blot with anti-Flag; 1% NP-40 lysis buffer (50 mM Tris pH 7.5, 150 mM NaCl, 10% glycerol), overnight 4 °C
[3] = biological target: Myc- and 6xHis-tagged WT LRRK2 (leucine-rich repeat kinase 2) (UniProt Q5S007); test: co-IP; HEK293 cells transfected 24 h with Myc-LRRK2 alone or with Flag-USP7; IP with anti-Myc or anti-Flag; 1% NP-40 lysis buffer, overnight 4 °C
[4] = biological target: Myc- and 6xHis-tagged WT LRRK2 (leucine-rich repeat kinase 2) (UniProt Q5S007); test: pull-down; lysates of HEK293 cells co-transfected with LRRK2-Myc/6xHis and HA/Flag-USP7; Co2+ TALON magnetic beads, manufacturer's protocol
[5] = biological target: Myc- and 6xHis-tagged WT LRRK2 (leucine-rich repeat kinase 2) (UniProt Q5S007); test: pull-down; lysates of HEK293 cells co-transfected with LRRK2-Myc/6xHis and HA/Flag-USP7; Ni-NTA beads 1 h at 4 °C, washes with 10 and 25 mM imidazole (500 mM NaCl, 0.5% Triton X-100), elution with 250 mM imidazole
[6] = biological target: endogenous USP7 (ubiquitin-specific protease 7) (human (endogenous in THP-1, HEK293, SH-SY5Y)) (UniProt Q93009); test: co-IP; endogenous proteins, HEK293 lysate; IP with anti-LRRK2 (Fig. 2E) or anti-USP7 (Fig. 8B), IgG as control; 1% NP-40 lysis buffer, overnight 4 °C
[7] = biological target: endogenous LRRK2 (leucine-rich repeat kinase 2) (human (endogenous in THP-1, HEK293, SH-SY5Y)) (UniProt Q5S007); test: co-IP; endogenous proteins, SH-SY5Y lysate; IP with anti-LRRK2, IgG as control; 1% NP-40 lysis buffer, overnight 4 °C
[8] = biological target: endogenous LRRK2 (leucine-rich repeat kinase 2) (human (endogenous in THP-1, HEK293, SH-SY5Y)) (UniProt Q5S007); test: co-IP; endogenous proteins, THP-1 whole cell lysate; IP with anti-LRRK2 or anti-USP7, IgG as control; 1% NP-40 lysis buffer, overnight 4 °C
[9] = biological target: endogenous LRRK2 (leucine-rich repeat kinase 2) (human (endogenous in THP-1, HEK293, SH-SY5Y)) (UniProt Q5S007); test: proximity ligation; Duolink PLA kit, primary antibodies against endogenous LRRK2 and USP7; cell line not named
[10] = biological target: Flag-tagged WT HDAC3 (histone deacetylase 3) (UniProt O15379); test: co-IP; HEK293 cells transfected 24 h with Flag-HDAC3-WT; IP with anti-Flag, blot for endogenous USP7
[11] = biological target: endogenous LRRK2 (leucine-rich repeat kinase 2) (human (endogenous in THP-1, HEK293, SH-SY5Y)) (UniProt Q5S007); test: co-IP; endogenous proteins, HEK293 lysate; IP with anti-LRRK2 (Fig. 2E) or anti-USP7 (Fig. 8B), IgG as control; 1% NP-40 lysis buffer, overnight 4 °C

Flag-USP7 1-208 (TRAF domain) (from UniProt Q93009 1-208) (domain or fragment)
binding [1]: binds

Flag-USP7 206-560 (catalytic domain) (from UniProt Q93009 206-560) (domain or fragment)
binding [1]: no binding

Flag-USP7 560-776 (first two UBL subdomains, U1+U2) (from UniProt Q93009 560-776) (domain or fragment)
binding [1]: no binding

Flag-USP7 776-1102 (last three UBL subdomains, U3-U5) (from UniProt Q93009 776-1102) (domain or fragment)
binding [1]: binds

Flag-tagged human WT USP7 (ubiquitin-specific protease 7) (from UniProt Q93009 1-1102) (enzyme)
binding [2]: binds
binding [3]: binds
binding [1]: binds

HA/Flag-tagged USP7 (from UniProt Q93009 1-1102) (enzyme)
binding [4]: binds
binding [5]: binds

endogenous HDAC3 (histone deacetylase 3) (from UniProt O15379 1-428) (enzyme)
binding [6]: no binding

endogenous USP7 (ubiquitin-specific protease 7) (from UniProt Q93009 1-1102) (enzyme)
binding [7]: binds
binding [8]: binds
binding [9]: binds
binding [10]: no binding
binding [11]: binds
